# Laboratory results from the supplement of paper PMC9433436.
# ± gives the standard deviation of the averaged measurements. Over roughly 4,100 sequences, “relative kcat/Km (krel) vs genomic leader AAAGAU” has its median near 1.7; the highest 2% begin near 6.5. Only a part is listed here, and it is no random draw.
# Molecular target: T1, E. coli RNase P holoenzyme (M1 P RNA + rnpA protein) (UniProt P0A7Y8)
# T1 sequence: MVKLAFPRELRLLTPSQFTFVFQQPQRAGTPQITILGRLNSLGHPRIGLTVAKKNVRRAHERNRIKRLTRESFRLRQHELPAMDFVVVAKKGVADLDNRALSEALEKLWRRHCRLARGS
# Assay: relative kcat/Km (krel) vs genomic leader AAAGAU (relative (reference leader = 1)); higher = faster RNase P cleavage
# Protocol: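 HTS-Kin: a pool of ptRNA-Met (21C construct) with all 4096 combinations of 5' leader nucleotides N(-6) to N(-1) was processed in vitro by E. coli RNase P (P RNA + rnpA/C5 protein) under multiple-turnover conditions at 37 C, pH 8, 17.5 mM MgCl2. Residual substrate was Illumina-sequenced at several fractions reacted, and relative kcat/Km (krel) was computed by internal competition kinetics, calibrated to the genomic leader (AAAGAU = 1). The listed hexamer is the varied N(-6)..N(-1) leader (DNA letters), and it sits between a fixed 5' stem-loop flank (GCAUGCACGAAAGUGCGUGCUAUGAA) and the mature tRNA-Met starting GGCUACGUAGCUCAGUUGG. Two technical replicates are averaged.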
# [1] = fraction of substrate reacted: ~9-10% (9.79% repeat 1, 9.1% repeat 2)
# [2] = fraction of substrate reacted: ~13-16% (15.68% repeat 1, 13.17% repeat 2)
# [3] = fraction of substrate reacted: ~26-29% (28.66% repeat 1, 26.4% repeat 2)
Sequence,relative kcat/Km [1],relative kcat/Km [2],relative kcat/Km [3]
CTTATT,2.42 ± 1,2.76 ± 0.34,3.73 ± 1.6
AAACCT,1.79 ± 1.5,1.27 ± 0.11,1.63 ± 0.63
AGTGCT,0.993 ± 0.46,0.79 ± 0.14,0.89 ± 0.51
TATTCA,2.58 ± 0.84,2.98 ± 0.13,3.81 ± 1.7
CACCTC,2.99 ± 1.4,2.94 ± 0.042,3.82 ± 1.3
CAGCGG,0.407 ± 0.34,–,–
CGACAG,–,–,2.08 ± 1.1
AGATTT,3.33 ± 0.85,3.6 ± 0.94,4.68 ± 1.8
ACACGC,2.18 ± 0.42,2.65 ± 0.23,3.32 ± 1
AGTAGA,2.63 ± 0.91,3.4 ± 0.4,5.63 ± 1.9
TCATGC,1.56 ± 1.4,2.93 ± 1.1,4.85 ± 2.6
ATTCTT,2.59 ± 1.3,2.73 ± 0.18,3.43 ± 1.3
ACCGAA,3.81 ± 1.6,4.31 ± 1,6.81 ± 3
ATGGAA,0.941 ± 0.85,0.606 ± 0.34,0.998 ± 0.66
ACTTCA,1.02 ± 0.33,1.482 ± 0.014,1.97 ± 0.69
TGAAGC,2.1 ± 1.1,2.64 ± 0.89,2.86 ± 0.053
CTTTGT,1.23 ± 0.47,1.83 ± 0.55,1.9 ± 1.5
GGGAGA,0.529 ± 0.31,0.919 ± 0.067,1.46 ± 0.63
TATTCT,3.27 ± 1.2,4.15 ± 0.4,5.78 ± 2.3
GATCAG,–,0.322 ± 0.049,2.31 ± 0.34
GTGATC,2.02 ± 0.21,1.56 ± 0.56,1.58 ± 0.39
ACAAAC,1.92 ± 1.6,1.88 ± 1.1,2.42 ± 0.36

Sequence,relative kcat/Km [1],relative kcat/Km [2],relative kcat/Km [3]
GGGTCG,–,–,0.592 ± 0.082
GCTAAC,1.25 ± 0.023,1.09 ± 0.85,2.1 ± 0.56
GTCGCT,2.09 ± 1.2,2.03 ± 0.41,3.35 ± 1
ATGAAT,1.23 ± 0.64,2.19 ± 0.089,3.11 ± 1
AGGCTT,–,–,0.621 ± 0.098
TGTGAT,1.42 ± 0.34,0.736 ± 0.6,1 ± 0.32
GAAGGG,–,–,1 ± 0.96
GCCGTC,1.28 ± 0.43,1.56 ± 0.46,2.72 ± 0.89
GGATCG,–,0.717 ± 0.7,1.11 ± 0.57
AAAAGT,1.32 ± 1.1,–,–
GTATCG,–,–,2.18 ± 0.42
TATCAA,2.7 ± 0.57,3.55 ± 0.23,5.47 ± 2.8
TGCCAT,2.8 ± 0.93,2.89 ± 0.61,4.45 ± 1.8
TCTGTA,1.94 ± 1.6,1.58 ± 0.73,2.08 ± 0.3
ACGCGG,0.737 ± 0.44,0.406 ± 0.35,0.601 ± 0.031
CTGGAA,0.795 ± 0.032,–,0.509 ± 0.11
GGCCGA,1.949 ± 0.015,2.42 ± 0.35,3.95 ± 1.3
CTAAGG,0.616 ± 0.073,–,0.617 ± 0.46
GATCCC,1.88 ± 1.6,–,–
CGAGGA,1.55 ± 0.89,0.967 ± 0.6,1.41 ± 0.09
TGAACT,1.41 ± 0.67,1.85 ± 0.71,2.58 ± 0.76
GTTGCT,1.31 ± 0.97,–,1.08 ± 0.14

Sequence,relative kcat/Km [1],relative kcat/Km [2],relative kcat/Km [3]
TCGCCA,1.7 ± 1.1,1.97 ± 0.14,1.98 ± 0.91
GAACTT,1.17 ± 0.27,2.01 ± 0.035,2.24 ± 0.82
ATCGGT,–,–,1.34 ± 0.33
TCTTTT,2.83 ± 0.77,3.27 ± 0.55,4.29 ± 1.7
CTGATG,–,–,0.566 ± 0.16
TACCCG,1.12 ± 0.77,0.792 ± 0.78,2.34 ± 0.82
GAGTTG,–,–,0.549 ± 0.24
AGTTGA,2.04 ± 0.023,2.78 ± 1.2,5.25 ± 2.5
CCGGGC,0.693 ± 0.032,–,–
TATTTC,3.05 ± 1.6,2.87 ± 0.086,4.12 ± 1.9
GTGTTA,1.3 ± 0.062,1.32 ± 0.083,1.45 ± 0.14
GGCCAT,2.24 ± 0.2,2.71 ± 0.61,4.24 ± 2
GAATAT,2.99 ± 0.33,4.3 ± 0.79,6.29 ± 3.4
GTAATC,2.47 ± 1.5,1.92 ± 0.42,2.8 ± 0.97
GTGTGG,–,–,0.958 ± 0.79
CCTTAA,3.45 ± 1.6,3.21 ± 0.41,4.82 ± 1.7
TAAAAA,2.32 ± 1.7,2 ± 0.61,2.62 ± 0.62
GAGCCG,–,–,0.503 ± 0.095
CACGGC,–,–,1.55 ± 1.4
CGAAAC,3.1 ± 2.6,3.15 ± 0.72,3.81 ± 0.8
TTGTTA,2.11 ± 0.74,2.46 ± 0.57,3.37 ± 1.2
AGCGTT,0.85 ± 0.26,1.2 ± 0.48,1.58 ± 1

Sequence,relative kcat/Km [1],relative kcat/Km [2],relative kcat/Km [3]
CCATAA,3.55 ± 1.6,2.67 ± 0.37,3.58 ± 0.78
TCAATG,–,1.01 ± 0.93,2.73 ± 0.39
GCAGCC,–,0.174 ± 0.14,0.786 ± 0.28
CGTACT,1.12 ± 0.53,0.899 ± 0.53,1.9 ± 0.12
GACGGA,–,1.21 ± 1.1,0.922 ± 0.64
GCACCT,1.56 ± 0.91,0.955 ± 0.064,1.56 ± 1.1
GTAATA,–,1.66 ± 0.19,2.4 ± 1
TGGCGC,–,–,0.264 ± 0.044
AGTGCC,2.18 ± 0.42,1.93 ± 0.48,1.81 ± 0.049
TCGATA,1.5 ± 0.34,1.5 ± 0.96,1.97 ± 0.85
CGGGCC,0.32 ± 0.084,–,–
CCTCTG,–,–,1.47 ± 0.38
AATGCC,2.38 ± 1.7,1.43 ± 0.1,1.48 ± 0.22
AGATCA,1.57 ± 0.078,1.42 ± 0.27,2.89 ± 1.4
ATCCTA,3.22 ± 1.7,3.39 ± 0.28,4.55 ± 1.7
TCTGCG,–,–,1.25 ± 0.26
TGCACG,–,–,0.926 ± 0.2
ACACGA,2.06 ± 0.13,2.5 ± 1.2,2.94 ± 0.93
GCCACC,1.97 ± 0.06,2.25 ± 0.33,3.85 ± 1.4
ACGGTA,0.622 ± 0.39,2.17 ± 1.7,–
TCGACT,–,–,0.985 ± 0.14
TGGAGG,–,–,0.887 ± 0.34

Sequence,relative kcat/Km [1],relative kcat/Km [2],relative kcat/Km [3]
CCTGTC,1.07 ± 1.1,1.91 ± 1.4,2.16 ± 0.74
CAACCG,–,–,0.953 ± 0.018
ATTGTA,1.33 ± 0.24,1.49 ± 0.07,2.21 ± 0.86
TATGGA,–,–,1.31 ± 1.2
AGCACC,2.38 ± 0.45,2.12 ± 1.5,3.05 ± 1.8
TCACTA,1.91 ± 0.81,1.58 ± 0.35,2.25 ± 0.33
TTTTAA,4.32 ± 1.7,4.88 ± 0.61,6.68 ± 2.5
GCATAG,–,0.443 ± 0.23,1.87 ± 0.65
GCCGGG,0.746 ± 0.37,–,0.279 ± 0.2
ATGAAA,1.99 ± 0.48,2.53 ± 0.066,3.89 ± 1.4
TTGACC,1.75 ± 0.21,1.64 ± 0.33,2.26 ± 0.51
AAGCTC,1.881 ± 0.011,2.12 ± 0.4,1.29 ± 0.13
CTGTGC,0.635 ± 0.093,0.681 ± 0.39,1.31 ± 0.41
ATATTA,2.33 ± 1.7,2.18 ± 0.77,3.23 ± 1.1
CGGACT,0.306 ± 0.14,0.0461 ± 0.0068,–
ATCGCG,2.62 ± 1.1,1.7 ± 0.89,3.07 ± 0.91
TACAAA,3.89 ± 1.8,5.2 ± 0.41,7.71 ± 3
TTACGG,1.22 ± 0.84,–,1.08 ± 0.3
TCGCGA,1.14 ± 0.13,1.69 ± 1.5,2.62 ± 0.93
CCGTTT,2.55 ± 0.056,2.76 ± 0.66,3.74 ± 1.6
GGAGCA,1.92 ± 1.7,–,1.33 ± 0.18
